# Results: the supplement of paper PMC8728848
# This is one part of the list.
# What was measured:
# Test in all cases: glycan array binding signal (z-score within array); higher = stronger binding
# Conditions in all cases: glycan notation: IUPAC condensed, linker removed
# [1] = molecular target: Gal(a1-3)Gal(b1-3)GlcNAc(b1-6)GalNAc
# Method in brief: (§1)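 Negative Z-scores can be read as non-binding. The Z-score is calculated within each array and then averaged across arrays of one protein sequence at different concentrations or buffers and across linkers. Arrays, 3228 in all, were curated from the Consortium for Functional Glycomics database and kept only where the protein sequence was available.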
# [2] = molecular target: Gal(a1-3)Gal(b1-3)[Fuc(a1-4)]GlcNAc(b1-2)Man(a1-3)[Gal(a1-3)Gal(b1-3)[Fuc(a1-4)]GlcNAc(b1-2)Man(a1-6)]Man(b1-4)GlcNAc(b1-4)GlcNAc
# Method in brief: as §1
# Gal(a1-3)Gal(b1-4)Glc = molecular target: Gal(a1-3)Gal(b1-4)Glc
# Method in brief: as §1
# Gal(a1-3)Gal(b1-4)GlcNAc = molecular target: Gal(a1-3)Gal(b1-4)GlcNAc
# Method in brief: as §1
# [3] = molecular target: Gal(a1-3)Gal(b1-4)GlcNAc(b1-2)Man
# Method in brief: as §1
# [4] = molecular target: Gal(a1-3)Gal(b1-4)GlcNAc(b1-2)Man(a1-3)[Gal(a1-3)Gal(b1-4)GlcNAc(b1-2)Man(a1-6)]Man(b1-4)GlcNAc(b1-4)GlcNAc
# Method in brief: as §1
# [5] = molecular target: Gal(a1-3)Gal(b1-4)GlcNAc(b1-3)GalNAc
# Method in brief: as §1
# [6] = molecular target: Gal(a1-3)Gal(b1-4)GlcNAc(b1-6)GalNAc
# Method in brief: as §1
# [7] = molecular target: Gal(a1-3)Gal(b1-4)[Fuc(a1-3)]GlcNAc
# Method in brief: as §1
# [8] = molecular target: Gal(a1-3)Gal(b1-4)[Fuc(a1-3)]GlcNAc(b1-2)Man(a1-3)[Gal(a1-3)Gal(b1-4)[Fuc(a1-3)]GlcNAc(b1-2)Man(a1-6)]Man(b1-4)GlcNAc(b1-4)GlcNAc
# Method in brief: as §1
# Gal(a1-3)GalNAc = molecular target: Gal(a1-3)GalNAc
# Method in brief: as §1
# [9] = molecular target: Gal(a1-3)[Gal(a1-4)]Gal(b1-4)GlcNAc
# Method in brief: as §1
# [10] = molecular target: Gal(a1-4)Gal(b1-3)GlcNAc(b1-2)Man(a1-3)[Gal(a1-4)Gal(b1-3)GlcNAc(b1-2)Man(a1-6)]Man(b1-4)GlcNAc(b1-4)GlcNAc
# Method in brief: as §1
# Gal(a1-4)Gal(b1-4)Glc = molecular target: Gal(a1-4)Gal(b1-4)Glc
# Method in brief: as §1
# Gal(a1-4)Gal(b1-4)GlcNAc = molecular target: Gal(a1-4)Gal(b1-4)GlcNAc
# Method in brief: as §1
# [11] = molecular target: Gal(a1-4)Gal(b1-4)GlcNAc(b1-2)Man(a1-3)[Gal(a1-4)Gal(b1-4)GlcNAc(b1-2)Man(a1-6)]Man(b1-4)GlcNAc(b1-4)GlcNAc
# Method in brief: as §1
# [12] = molecular target: Gal(a1-4)Gal(b1-4)GlcNAc(b1-3)Gal(b1-4)Glc
# Method in brief: as §1
# Gal(a1-4)GlcNAc = molecular target: Gal(a1-4)GlcNAc
# Method in brief: as §1
# Gal(a1-6)Glc = molecular target: Gal(a1-6)Glc
# Method in brief: as §1
# Gal(b1-2)Gal = molecular target: Gal(b1-2)Gal
# Method in brief: as §1
# Gal(b1-3)Gal = molecular target: Gal(b1-3)Gal
# Method in brief: as §1
# Gal(b1-3)Gal(b1-4)GlcNAc = molecular target: Gal(b1-3)Gal(b1-4)GlcNAc
# Method in brief: as §1
# Gal(b1-3)GalNAc = molecular target: Gal(b1-3)GalNAc
# Method in brief: as §1
# [13] = molecular target: Gal(b1-3)GalNAc(a1-3)[Fuc(a1-2)]Gal(b1-4)Glc
# Method in brief: as §1
# [14] = molecular target: Gal(b1-3)GalNAc(a1-3)[Fuc(a1-2)]Gal(b1-4)GlcNAc
# Method in brief: as §1
# Gal(b1-3)GalNAc(b1-3)Gal = molecular target: Gal(b1-3)GalNAc(b1-3)Gal
# Method in brief: as §1
# [15] = molecular target: Gal(b1-3)GalNAc(b1-3)Gal(a1-4)Gal(b1-4)Glc
# Method in brief: as §1
# [16] = molecular target: Gal(b1-3)GalNAc(b1-4)Gal(b1-4)Glc
# Method in brief: as §1
# [17] = molecular target: Gal(b1-3)GalNAc(b1-4)[Neu5Ac(a2-3)]Gal(b1-4)Glc
# Method in brief: as §1
# Gal(b1-3)GlcNAc = molecular target: Gal(b1-3)GlcNAc
# Method in brief: as §1
# [18] = molecular target: Gal(b1-3)GlcNAc(a1-3)Gal(b1-4)GlcNAc
# Method in brief: as §1
# [19] = molecular target: Gal(b1-3)GlcNAc(a1-6)Gal(b1-4)GlcNAc
# Method in brief: as §1
# Gal(b1-3)GlcNAc(b1-2)Man = molecular target: Gal(b1-3)GlcNAc(b1-2)Man
# Method in brief: as §1
# [20] = molecular target: Gal(b1-3)GlcNAc(b1-2)Man(a1-3)[Gal(b1-3)GlcNAc(b1-2)Man(a1-6)]Man(b1-4)GlcNAc(b1-4)GlcNAc
# Method in brief: as §1
# [21] = molecular target: Gal(b1-3)GlcNAc(b1-2)Man(a1-3)[Gal(b1-3)GlcNAc(b1-2)Man(a1-6)]Man(b1-4)GlcNAc(b1-4)[Fuc(a1-6)]GlcNAc
# Method in brief: as §1
# [22] = molecular target: Gal(b1-3)GlcNAc(b1-2)Man(a1-3)[GlcNAc(b1-4)][Gal(b1-3)GlcNAc(b1-2)Man(a1-6)]Man(b1-4)GlcNAc(b1-4)GlcNAc
# Method in brief: as §1
# [23] = molecular target: Gal(b1-3)GlcNAc(b1-2)[Gal(b1-3)GlcNAc(b1-6)]Man(a1-6)[Gal(b1-3)GlcNAc(b1-2)Man(a1-3)]Man(b1-4)GlcNAc(b1-4)GlcNAc
# Method in brief: as §1
# [24] = molecular target: Gal(b1-3)GlcNAc(b1-3)Gal(b1-3)GlcNAc
# Method in brief: as §1
# [25] = molecular target: Gal(b1-3)GlcNAc(b1-3)Gal(b1-4)Glc
# Method in brief: as §1
# [26] = molecular target: Gal(b1-3)GlcNAc(b1-3)Gal(b1-4)GlcNAc
# Method in brief: as §1
# [27] = molecular target: Gal(b1-3)GlcNAc(b1-3)Gal(b1-4)GlcNAc(b1-2)Man(a1-3)[Gal(b1-3)GlcNAc(b1-3)Gal(b1-4)GlcNAc(b1-2)Man(a1-6)]Man(b1-4)GlcNAc(b1-4)GlcNAc
# Method in brief: as §1
# [28] = molecular target: Gal(b1-3)GlcNAc(b1-3)Gal(b1-4)GlcNAc(b1-2)[Gal(b1-3)GlcNAc(b1-3)Gal(b1-4)GlcNAc(b1-6)]Man(a1-6)[Gal(b1-3)GlcNAc(b1-3)Gal(b1-4)GlcNAc(b1-2)Man(a1-3)]Man(b1-4)GlcNAc(b1-4)[Fuc(a1-6)]GlcNAc
# Method in brief: as §1
# [29] = molecular target: Gal(b1-3)GlcNAc(b1-3)Gal(b1-4)GlcNAc(b1-3)Gal(b1-4)GlcNAc(b1-2)[Gal(b1-3)GlcNAc(b1-3)Gal(b1-4)GlcNAc(b1-3)Gal(b1-4)GlcNAc(b1-6)]Man(a1-6)[Gal(b1-3)GlcNAc(b1-3)Gal(b1-4)GlcNAc(b1-3)Gal(b1-4)GlcNAc(b1-2)Man(a1-3)]Man(b1-4)GlcNAc(b1-4)[Fuc(a1-6)]GlcNAc
# Method in brief: as §1
# [30] = molecular target: Gal(b1-3)GlcNAc(b1-3)Gal(b1-4)GlcNAc(b1-6)[Gal(b1-3)GlcNAc(b1-3)]Gal(b1-4)Glc
# Method in brief: as §1
# [31] = molecular target: Gal(b1-3)GlcNAc(b1-3)Gal(b1-4)[Fuc(a1-3)]GlcNAc
# Method in brief: as §1
binder,measurement,setting,value
"MAA (Maackia amurensis), P0DKL3 (protein) MATSNSKPTQVLLATFLTFFFLLLNNVNSSDELSFTINNFVPNEADLLFQGEASVSSTGVLQLTRVENGQPQKYSVGRALYAAPVRIWDNTTGSVASFSTSFTFVVKAPNPDITSDGLAFYLAPPDSQIPSGSVSKYLGLFNNSNSDSSNQIVAVELDTYFAHSYDPWDPNYRHIGIDVNGIESIKTVQWDWINGGVAFATITYLAPNKTLIASLVYPSNQTTFSVAASVDLKEILPEWVRVGFSAATGYPTEVETHDVLSWSFTSTLEANCDAATENNVHIARYTA",glycan array binding signal (z-score),[1],-0.237
same,glycan array binding signal (z-score),[2],0.162
same,glycan array binding signal (z-score),Gal(a1-3)Gal(b1-4)Glc,-0.137
same,glycan array binding signal (z-score),Gal(a1-3)Gal(b1-4)GlcNAc,-0.243
same,glycan array binding signal (z-score),[3],-0.27
same,glycan array binding signal (z-score),[4],-0.055
same,glycan array binding signal (z-score),[5],-0.205
same,glycan array binding signal (z-score),[6],-0.272
same,glycan array binding signal (z-score),[7],-0.19
same,glycan array binding signal (z-score),[8],-0.367
same,glycan array binding signal (z-score),Gal(a1-3)GalNAc,-0.196
same,glycan array binding signal (z-score),[9],-0.072
same,glycan array binding signal (z-score),[10],-0.144
same,glycan array binding signal (z-score),Gal(a1-4)Gal(b1-4)Glc,-0.167
same,glycan array binding signal (z-score),Gal(a1-4)Gal(b1-4)GlcNAc,-0.213
same,glycan array binding signal (z-score),[11],-0.119
same,glycan array binding signal (z-score),[12],-0.206
same,glycan array binding signal (z-score),Gal(a1-4)GlcNAc,-0.205
same,glycan array binding signal (z-score),Gal(a1-6)Glc,-0.166
same,glycan array binding signal (z-score),Gal(b1-2)Gal,-0.204
same,glycan array binding signal (z-score),Gal(b1-3)Gal,-0.233
same,glycan array binding signal (z-score),Gal(b1-3)Gal(b1-4)GlcNAc,-0.108
same,glycan array binding signal (z-score),Gal(b1-3)GalNAc,-0.227
same,glycan array binding signal (z-score),[13],-0.24
same,glycan array binding signal (z-score),[14],-0.27
same,glycan array binding signal (z-score),Gal(b1-3)GalNAc(b1-3)Gal,-0.264
same,glycan array binding signal (z-score),[15],-0.118
same,glycan array binding signal (z-score),[16],-0.224
same,glycan array binding signal (z-score),[17],-0.257
same,glycan array binding signal (z-score),Gal(b1-3)GlcNAc,-0.198
same,glycan array binding signal (z-score),[18],-0.283
same,glycan array binding signal (z-score),[19],-0.244
same,glycan array binding signal (z-score),Gal(b1-3)GlcNAc(b1-2)Man,-0.278
same,glycan array binding signal (z-score),[20],-0.021
same,glycan array binding signal (z-score),[21],-0.073
same,glycan array binding signal (z-score),[22],-0.27
same,glycan array binding signal (z-score),[23],-0.239
same,glycan array binding signal (z-score),[24],-0.161
same,glycan array binding signal (z-score),[25],-0.181
same,glycan array binding signal (z-score),[26],-0.22
same,glycan array binding signal (z-score),[27],-0.169
same,glycan array binding signal (z-score),[28],-0.213
same,glycan array binding signal (z-score),[29],0.178
same,glycan array binding signal (z-score),[30],-0.24
same,glycan array binding signal (z-score),[31],-0.245
